From PubChem BioAssay AID488969 (Vanderbilt High Throughput Screening Facility, 2010)
The full ranking holds about 110,000 compounds; the median of “z-score” is about -0.1, and the highest 2% start at about 2. The list shows a part of the results.

Target: Metabotropic glutamate receptor 8 (Rattus norvegicus) (UniProt P70579)
Experiment: mGluR8 Gi/Go-coupled signaling modulation – cell-based, rat, thallium flux, HTS, primary screen (AID 488969)
Conditions: HEK293 rat mGluR8, GIRK (G protein-gated inwardly rectifying potassium channel) thallium flux, FluoZin2; at 10 µM; stronger effect = higher value; submaximal glutamate (EC20) added with thallium

Chain of UniProt P70579 (P70579 whole entry, looked up): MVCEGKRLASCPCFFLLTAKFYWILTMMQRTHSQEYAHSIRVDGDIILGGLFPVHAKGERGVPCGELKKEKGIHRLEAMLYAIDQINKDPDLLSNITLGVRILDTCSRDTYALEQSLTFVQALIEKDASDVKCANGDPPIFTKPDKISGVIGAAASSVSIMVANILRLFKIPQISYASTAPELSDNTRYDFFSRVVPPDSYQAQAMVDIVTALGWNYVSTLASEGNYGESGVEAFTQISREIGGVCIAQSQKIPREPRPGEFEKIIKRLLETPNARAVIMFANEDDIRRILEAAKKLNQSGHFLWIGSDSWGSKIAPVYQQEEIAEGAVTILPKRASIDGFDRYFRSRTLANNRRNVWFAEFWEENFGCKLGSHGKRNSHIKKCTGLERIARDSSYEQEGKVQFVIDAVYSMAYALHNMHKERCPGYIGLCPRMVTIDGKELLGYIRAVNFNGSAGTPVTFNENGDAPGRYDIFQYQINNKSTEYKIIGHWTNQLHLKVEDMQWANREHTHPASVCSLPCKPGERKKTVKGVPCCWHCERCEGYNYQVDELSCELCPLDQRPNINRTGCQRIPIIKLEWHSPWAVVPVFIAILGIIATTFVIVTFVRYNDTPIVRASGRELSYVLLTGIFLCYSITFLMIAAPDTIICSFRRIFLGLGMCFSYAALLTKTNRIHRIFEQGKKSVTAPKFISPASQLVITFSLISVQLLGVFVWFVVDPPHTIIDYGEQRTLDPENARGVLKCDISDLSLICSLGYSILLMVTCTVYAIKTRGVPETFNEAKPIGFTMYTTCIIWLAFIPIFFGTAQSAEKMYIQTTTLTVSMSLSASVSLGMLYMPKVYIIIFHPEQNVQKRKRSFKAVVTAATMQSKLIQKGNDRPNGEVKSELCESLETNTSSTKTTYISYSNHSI

SMILES	z-score
COc1ccccc1OCc1nc(Cc2ccc(Cl)cc2)no1	-0.142
Cc1ccc(CCNC(=O)c2ccc(CS(=O)(=O)Cc3ccccc3F)o2)cc1	-0.498
COc1cc(C(=O)NCC2CCCO2)ccc1OCc1c(C)noc1C (stereo not given)	0.415
COc1ccc(S(=O)(=O)N2CCN(Cc3cccc(Cl)c3)CC2)cc1	0.0411
Cc1cccc(Oc2ncnc(N)c2[N+](=O)[O-])c1	-0.239
CCC1(C(=O)c2ccccc2)C(c2cccc([N+](=O)[O-])c2)C1(C(=O)OC)C(=O)OC (stereo not given)	-0.189
CNC(=O)c1sccc1S(=O)(=O)Cc1c(Cl)cccc1Cl	0.11
O=C(Cn1nc(-c2ccc(Cl)cc2)ccc1=O)NCc1ccc2c(c1)OCO2	1.01
S=c1[nH]nc(-c2ccncc2)n1Cc1ccco1	-0.198
COc1cc(/C=N\NC(=O)CNC(=O)c2cccc([N+](=O)[O-])c2)ccc1O	0.227
O=C1N=C(N2CCOCC2)S/C1=C\C=C/c1ccccc1	-0.0848
O=C(c1ccccc1F)N(Cc1ccc2c(c1)OCO2)Cc1cc2cc3c(cc2n2nnnc12)OCO3	-0.927
O=C(Cn1cnc2c(nnn2Cc2ccccc2F)c1=O)NCc1ccco1	0.156
COc1ccc(C(=O)OCC(=O)Nc2ccc(F)c(F)c2F)cc1OC	-0.106
O=C(NCC(=O)N1CCCC1C(=O)O)OC1CCCCC1 (stereo not given)	0.537
O=C1NCCCc2nonc21	-0.16
O=C(CN1CCN(CCN2C(=O)c3cccc4cccc(c34)C2=O)CC1)c1ccc(Cl)cc1	-0.0452
COCCCNC(=O)CSC1=Nc2ccccc2C2=NC(CC(=O)NCc3ccccc3)C(=O)N12 (stereo not given)	0.912
Cc1cc(/C=C(/C#N)C(=O)Nc2ccc(Cl)cc2)c(C)n1-c1cccnc1	-0.136
CCc1c(C)nc2cc(-c3ccc(OC)c(OC)c3)nn2c1N1CCC(C)CC1	-0.784
COCC(C)n1c(SCC(=O)NCCC2=CCCCC2)nc2ccccc2c1=O (stereo not given)	-0.372
CCOC(=O)c1cnc(SCC(=O)N2CCN(C(=O)c3ccco3)CC2)nc1N	-0.0653
Cc1ccsc1C(=O)Nc1ccc(F)c([N+](=O)[O-])c1	0.237
CC1=C(C)CC2C(=O)N(Cc3ccccc3)C(=O)C2C1 (stereo not given)	-0.0316
Cc1ccc(NC(=O)/C=C/c2cccs2)c([N+](=O)[O-])c1	-0.147
CCOC(=O)C1CCCN(C(=O)Cn2cccc2C(=O)c2ccccc2)C1 (stereo not given)	-1.33
COCC(=O)Nc1cc(C(=O)NCC(C)C)ccc1Cl	0.407
O=C(O)c1ccn(Cn2cnc3ccccc32)n1	0.63

SMILES	z-score
O=c1c[n+]([O-])c2ccccc2n1OCc1ccccn1	-0.45
O=C(N1CCOCC1)N1CCN(c2ccccn2)CC1	0.532
Fc1ccc(N/N=C/C=C/c2ccccc2)c(F)c1	0.312
CCN(CC)CCNC(=O)Cn1nc(-c2ccccc2)c2ccccc2c1=O	0.617
CCCCC(=O)Nc1ccc(NC(=S)NC(=O)CC(C)C)cc1OC	-0.318
Cc1cccc(OCCC(=O)Nc2c(C)n(C)n(-c3ccccc3)c2=O)c1	-0.253
Cc1ccc(-c2nn3c(C)nnc3s2)cc1NC(=O)c1cccnc1	-1.54
CCN1CCN(Cc2nc3c(c(=O)[nH]c(=O)n3C)n2Cc2ccccc2Cl)CC1	-0.0236
CCOc1ccc(CNc2ccc(N3CCOCC3)c(C(=O)O)c2)cc1	0.0248
CCOC(=O)C1CCN(C(=O)COc2ccc(S(=O)(=O)NC(C)(C)C)cc2)CC1	-0.34
O=S(=O)(c1cccs1)N1CCN(CC(O)COc2cc(Cl)ccc2Cl)CC1 (stereo not given)	-1.86
CCn1cc(Cl)c(C(=O)Nc2nc3ccccc3n2CCN2CCCCC2)n1	-0.53
Cn1cc([N+](=O)[O-])c(C(=O)Nc2ccn(Cc3c(F)c(F)cc(F)c3F)n2)n1	-0.38
COc1ccc(OC)c(NC(=S)NCc2cccs2)c1	-0.0175
CCCCCCCCCOC(=O)C(CC(=O)O)N1CCOCC1 (stereo not given)	0.209
C/C(CC(=O)NCc1ccco1)=N\NC(=O)C(c1ccccc1)c1ccccc1	-0.174
Cc1c(NC(=O)CSc2nnnn2-c2ccc(O)cc2)c(=O)n(-c2ccccc2)n1C	-0.109
CC1(C)CCN(Cc2ccccc2)C1CC#N (stereo not given)	0.531
CCCC(=O)Nc1ccc(C(=O)/C=C/c2ccc(SC)cc2)cc1	-0.272
Cc1cccc(-n2cnc(C(=O)N/N=C/c3ccccc3)c2)n1	-0.311
COc1ccccc1NS(=O)(=O)c1cc(NC(=O)c2cc3ccccc3oc2=O)ccc1C	-0.257
C=C(C)CNC(=S)N/N=C/C1=CCC2CC1C2(C)C (stereo not given)	0.611
O=C(COc1ccccc1Cl)Nc1cc(Cl)ccc1Oc1ccccc1	-0.0408
COc1ccccc1NC(=O)C1=C(C)Nc2ncnn2C1c1cccs1 (stereo not given)	-0.283
Cc1onc(C(=O)/C=C/N(C)C)c1C(=O)Nc1nccs1	-0.266
O=C1c2ccccc2C(=O)N1CCSc1ncn[nH]1	0.252
CCOC(=O)c1cnc(-n2nc(C)cc2C)nc1Nc1ccccc1OC	0.0785
